Laboratory results published in PubChem BioAssay AID1347073 (National Center for Advancing Translational Sciences (NCATS), 2019).
Hit rate of the full screen: of about 45,000 compounds, about 200 (0.44%) were called active. Not shown: some 7% with an inconclusive outcome. Calls follow the shape of the dose curve; as a rule, active = well fitted activation curve with a large enough effect; inconclusive = small, poorly fitted or top-dose-only effect; inactive = no such curve, though single readings can be large or run the other way. The list shows a part of the results.

experiment: qHTS of TDP-43 Inhibitors: NCGC Sytravon Library Screen; conditions: yeast TDP-43 toxicity rescue, BacTiter-Glo growth, 24 h; series mostly up to 46.1 µM; growth rescue (activation): at the top concentration; also: 0% is about no effect; nearly all actives have a fitted effect of over 55% in size
Procedure, shortened: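 TDP-43-expressing yeast, pregrown in raffinose, seeded at OD600 0.02 in galactose medium with compound for 24 hr at 30 deg C. Growth read by BacTiter-Glo luminescence, so rescue of toxicity appears as activation.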

Structure (SMILES) | growth rescue (activation)
OC1CCN(C(=S)Nc2ccc(Nc3ccccc3)cc2)CC1 | inactive: 10.9%
O=C(NCC(=O)N(c1ccccc1)C(C(=O)NC1CCCCC1)c1cccnc1)c1cccs1 (stereo not drawn) | inactive: -0.26%
CC1(C(=O)NS(=O)(=O)Cc2cccc(Cl)c2)CCN1C(=O)C/C=C/c1ccccc1 (stereo not drawn) | inactive: 10.4%
O=C(NCc1ccco1)c1ccc2c(c1)N(Cc1ccccc1)C(=O)c1ccccc1S2(=O)=O | inactive: 14.1%
Cc1ccc(C)c(C2C(=O)c3ccccc3C2=O)c1 | inactive: 15.5%
O=C(Nc1ccc2c(c1)OCO2)C1CC(c2cccc(Br)c2)=NO1 (stereo not drawn) | inactive: 10.5%
CCOc1ccc(N2CC(C(=O)Nc3nnc(Cc4ccc(OC)c(OC)c4)s3)CC2=O)cc1 (stereo not drawn) | inactive: 1.5%
COc1ccc(-c2cc3c(=O)n(CC(=O)NC4CCN(Cc5ccccc5)CC4)ncn3n2)cc1 | inactive: -13.9%
N=c1c(C(=O)NCCc2ccccc2)cc2c(=O)n3ccccc3nc2n1CCCN1CCOCC1 | inactive: 4.15%
CC1(C)Cc2ccccc2-c2nc3n(c(=O)c21)CCCS3 | inactive: 25.6%
S=C1NCCNC(=S)NCCOCCN1 | inactive: 1.78%
CC1CN(Cc2ccccc2)C(C)CC1O (stereo not drawn) | inactive: 16.4%
O=C1[C@@H]2[C@@H]3C[C@@H]([C@H]4ON=C(c5ccc(Cl)cc5)[C@@H]34)[C@@H]2C(=O)N1C1CCCCC1 | inactive: 25.6%
Cc1cc2oc(=O)sc2cc1NS(=O)(=O)c1cccc2cccnc12 | inactive: 7.65%
CC(=O)NN1C(=O)/C(=C/c2ccc(C(C)C)cc2)SC1=S | inactive: 9.51%
CC(C)C(NS(=O)(=O)c1cc(C(=O)O)ccc1Cl)C(=O)O (stereo not drawn) | inactive: 19.7%
CCCCn1c(N)c(N(C)C(=O)C2CC(=O)N(Cc3ccco3)C2)c(=O)[nH]c1=O (stereo not drawn) | inactive: -0.455%
CCc1nc2ccccc2n1Cc1ccc(OC)c(OC)c1 | inactive: -3.61%
O=C(CSc1nnc(-c2ccc(F)cc2)o1)NC1CCCC1 | inactive: 2%
O=C(Nc1ccccc1N1CCN(C(=O)c2ccccc2)CC1)c1ccc([N+](=O)[O-])o1 | inactive: 19.9%
COc1ccc(NC(=O)Nc2nc3ccccc3s2)cc1 | inactive: 9.92%
CCOCCc1nnc(NC(=O)C2CC(=O)N(CCc3ccc(F)cc3)C2)s1 (stereo not drawn) | inactive: 6.38%
COC(=O)Cc1[nH]n(-c2ccccc2)c(=O)c1C=Nc1ccc(C)cc1 | inactive: 12.7%

Structure (SMILES) | growth rescue (activation)
O=C(N/N=C/c1cn(-c2ccccc2)nc1-c1ccc(F)cc1)c1ccc(Br)o1 | inactive: 14.7%
Cc1ccc(-c2csc3ncnc(SCc4ccc(C(=O)O)cc4)c23)cc1 | inactive: 24.3%
CC(=O)Nc1cccc(/C(C)=N/NC(=O)c2cccs2)c1 | inactive: 11.5%
COc1ccc(N2CCN(C(=O)CN(C)S(=O)(=O)c3cc(C)ccc3OC)CC2)cc1 | inactive: 3.36%
CCCOc1ccc(F)cc1-c1cc(C(=O)NCc2ccccc2)[nH]n1 | inactive: 24.7%
O=C1C2C3C=CC(C3)C2C(=O)N1Nc1ccccc1 (stereo not drawn) | inactive: 5.72%
COc1cc(Cn2c3ccc(NC(=O)CC(C)C(F)(F)F)cc3c(=O)n2C)ccc1F (stereo not drawn) | inactive: 5.39%
CC(=N)C1=C(O)CC(c2ccccc2)CC1=O (stereo not drawn) | inactive: -49.4%
Cc1ccc(CNC(=O)COc2ccc(S(=O)(=O)N3CCCC3)cc2)cc1 | inactive: 5.38%
CCC(C)[C@H](NC(=O)C1CCC(CNC(=O)[C@@H]2CCCN2C(=O)OC(C)(C)C)CC1)C(=O)O (stereo partly drawn) | inactive: 0.146%
CNC(=O)N(O)C1N(/N=C/c2cccs2)C(=S)SC1(C)C (stereo not drawn) | inactive: 2.2%
Cc1ncc(CO)c(/C=N/NC(=O)c2ccoc2C)c1O | inactive: -14.7%
O=C(Nc1ccccc1)C1CC(=O)n2c(nc3ccccc32)N1 (stereo not drawn) | inactive: 3.59%
CC(C)OP(=O)(OC(C)C)C(Nc1ccccn1)c1ccc(F)cc1 (stereo not drawn) | inactive: 20.6%
CCN(CC)CCCN=Cc1c(-c2ccccc2)[nH]n(-c2nc3ccccc3s2)c1=O | inactive: 19.9%
COc1ccc(C2C(C#N)=C(N)Oc3cc(O)ccc32)cc1 (stereo not drawn) | inactive: 0.748%
CC1CCC2C(=O)N(c3ccc(NC4CCCCC4)c([N+](=O)[O-])c3)C(=O)C2C1 (stereo not drawn) | inactive: -12.3%
Cc1ccc(NC(=O)C2CCCN(S(=O)(=O)c3cccc4nonc34)C2)cc1 (stereo not drawn) | inactive: -0.639%
O=C(CN(C(=O)c1csnn1)c1ccc(F)cc1)NCc1ccc(F)cc1 | inactive: 9.08%
CCOC(=O)C1(Cc2ccccc2)CCN(C2Cc3ccccc3C2)CC1 | inactive: 13.7%
Cc1cc(S(=O)(=O)N2CCOCC2)ccc1OCC(=O)N1CCC(C)CC1 | inactive: -1.71%
Cc1ccsc1C(=O)OCC(=O)NCc1ccccc1 | inactive: 20.2%
CSCCC(NC(=O)c1ccc(Cl)cc1)C(=O)OCC(=O)Nc1cc(Cl)ccc1C#N (stereo not drawn) | inactive: 0.763%

Structure (SMILES) | growth rescue (activation)
CCCn1c(=S)[nH]c2sc3c(c2c1=O)CCCC3 | inactive: 0.536%
CCOC(=O)Cc1csc(NC(=O)c2ccc3ccccc3n2)n1 | inactive: 1.81%
COc1ccc(CCNCc2ccccc2N2CCCC2)cc1 | inactive: -6.75%
O=C(CSc1nc2ccccc2o1)Nc1nc(-c2ccccc2)cs1 | inactive: 17.7%
COc1ccc(COC(=O)CN2C(=O)NC3(CC(C)CC(C)(C)C3)C2=O)cc1F (stereo not drawn) | inactive: -22.2%
C=CCNC(=S)N1CCN(C2CCCCC2)CC1 | inactive: 19.7%
CC(=O)Nc1ccc(NC(=O)CNC(=O)COc2ccccc2)cc1 | inactive: 9.52%
O=S(=O)(c1ccc(NC(=S)NCc2ccco2)cc1)N1CCCC1 | inactive: -7.11%
COc1cc(/C=C(/C#N)c2nc3ccccc3c(=O)[nH]2)ccc1O | inactive: -1.21%
CN(C)N(C)C(=O)C(O)(c1ccccc1)c1ccccc1 | inactive: 15.7%
Cc1ccc(NCc2ccc(Cl)nc2)c(NCc2ccc(Cl)nc2)c1 | inactive: 15.2%
O=C(CCc1ccccc1)NNC(=O)c1cccc(F)c1 | inactive: 0.708%
Cc1cccc(NC(=S)NC(=O)c2ccc(Br)o2)c1 | inactive: 22.7%
CN(Cc1cccnc1)Cc1cn[nH]c1-c1ccc(-c2ccccc2)cc1 | inactive: 5.12%
CNC(=O)C1(C)Cc2c(-c3ccc4c(c3)OCO4)ccnc2O1 (stereo not drawn) | inactive: -1.68%
CCCN(CCC)c1ccc(/C=N/NC(=O)CN2CCOCC2)cc1 | inactive: -8.15%
Cc1nn(-c2ccccc2)c(N2CCCC2)c1/C=N/Nc1ccc(S(N)(=O)=O)cc1[N+](=O)[O-] | inactive: -0.695%
O=C(COC(=O)c1ccc(N2CCCC2=O)cc1)c1ccc(OC(F)F)cc1 | inactive: 6.87%
CN(CCCNC(=O)c1cc2c(Cl)nc3ccccc3c2s1)Cc1ccccc1 | inactive: -0.829%
CCOCCCn1c(SCC(=O)Nc2ccc(OC)cc2)nc2ccccc2c1=O | inactive: -5.76%
CC(=O)Nc1ccc(-c2csc(NC(=O)CCCc3cccs3)n2)cc1 | inactive: 7.07%
COc1ccc(C(C)(NC(C)=O)c2nc(-c3cccc(C(=O)O)c3)cs2)cc1 (stereo not drawn) | inactive: -13.1%
